Results as given in PubChem BioAssay AID485294 (National Center for Advancing Translational Sciences (NCATS), 2010).
The campaign covered roughly 370,000 compounds. About 150 (0.041%) were called active. Inconclusive means that the source gave no clear call. Such entries were picked first, then a sample of the others. Calls come from the whole dose curve; as a rule, active = well fitted inhibition curve with a large enough effect; inconclusive = small, poorly fitted or top-dose-only effect; inactive = flat fitted curve, though single readings scatter. Potencies of inconclusive entries are left out as doubtful fits.

target: Beta-lactamase (Escherichia coli (strain K12)) (UniProt P00811); assay: qHTS Inhibitors of AmpC Beta-Lactamase (assay with detergent); settings: AmpC hydrolysis of nitrocefin, absorbance 480 nm, 0.01% Triton; series mostly up to 114 µM; note: nearly all actives have a fitted effect of over 25% in size
Outline: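 20 mM phosphate pH 7.0 + 0.01% (detergent screen) or 0.0001% Triton X-100; 5.3 nM AmpC reagent; cpd preinc 15 min RT; nitrocefin (800 uM stock) to start; A480 q20 s × 4 min; Activity was normalised to no-enzyme and no-compound control wells.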
Potency is the fitted concentration of half-maximal effect; tags give direction and shape of the fitted curve.

Sequence of UniProt P00811 (P00811 whole entry, looked up): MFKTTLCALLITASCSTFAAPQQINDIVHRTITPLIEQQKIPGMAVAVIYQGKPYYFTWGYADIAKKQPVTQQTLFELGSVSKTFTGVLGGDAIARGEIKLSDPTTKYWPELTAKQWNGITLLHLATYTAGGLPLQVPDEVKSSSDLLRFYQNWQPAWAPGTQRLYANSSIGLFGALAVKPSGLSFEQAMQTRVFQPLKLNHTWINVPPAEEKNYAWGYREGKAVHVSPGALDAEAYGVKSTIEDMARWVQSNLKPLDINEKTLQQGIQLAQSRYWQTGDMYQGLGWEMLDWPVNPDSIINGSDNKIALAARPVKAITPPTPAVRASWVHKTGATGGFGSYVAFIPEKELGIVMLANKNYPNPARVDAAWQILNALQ

Compound | Potency
Fc1ccc(N=c2ssnc2Cl)c(F)c1 | inconclusive [inhibitor, full curve, poor fit]
O=CC1=C(c2ccccc2)Oc2ccccc2O1 | inconclusive [inhibitor, partial curve, poor fit]
O=C(NCc1ccccc1F)C(=O)NCC1CCCN1S(=O)(=O)c1ccccc1 (stereo not given) | inconclusive [inhibitor, full curve, poor fit]
Nc1ccccc1C(=O)c1ccccc1 | inconclusive [inhibitor, full curve]
O=C(Cn1ccc2ccccc2c1=O)NCCC(=O)Nc1ccc2c(c1)OCCO2 | inconclusive [inhibitor, partial curve, poor fit]
Cc1ccc(/C=N/NC(=O)c2ccoc2C)s1 | inactive
CCOC(=O)CCn1cnc2onc(-c3ccccc3Cl)c2c1=O | inactive
CC(=O)N1CCC(C(=O)Nc2cc(C)cc(C)c2)CC1 | inactive
Cc1c(C(=O)Nc2nnc(SCc3ccccc3Cl)s2)cccc1[N+](=O)[O-] | inconclusive [inhibitor, full curve, poor fit]
CCCCCN(C(=O)COC(=O)c1ccc(Br)o1)c1c(N)n(CCCC)c(=O)[nH]c1=O | inconclusive [inhibitor, full curve, poor fit]
NC(=S)N=Nc1c(O)[nH]c2ccc(F)cc12 | inconclusive [inhibitor, full curve, poor fit]
Cc1cc(NC(=O)c2ccco2)ccc1NC(=O)Cc1cccs1 | inactive
CCOC(=O)c1ccc(NC(=S)NC(=O)COc2ccccc2)cc1 | inconclusive [inhibitor, single point]
O=C(Nc1ccc(NC(=O)c2ccccc2Cl)nc1)c1ccco1 | inactive
N/C(=N\OC(=O)c1ccc(Cl)c(Cl)c1)c1cccnc1 | inactive
COc1cccc(-c2nc(SCC(=O)NC3CCCC3)c(-c3ccc(F)cc3)[nH]2)c1 | inactive
COCc1nc(-c2ccc(-c3ccccc3)nc2OC)no1 | inconclusive [inhibitor, single point]
COc1ccccc1CNC(=O)c1ccc(Nc2nc3ccccc3n3nnnc23)cc1 | inconclusive [inhibitor, single point]
C=CCN(c1ccccc1)S(=O)(=O)c1cccc(C(=O)NCC(c2ccc(F)cc2)N2CCOCC2)c1 (stereo not given) | inconclusive [inhibitor, full curve, poor fit]
COc1ccccc1-n1nnnc1SCC(=O)NCC1CCCO1 (stereo not given) | inconclusive [inhibitor, full curve, poor fit]
